Source: the supplement of paper PMC10681739
± gives the standard deviation of the averaged measurements. The full ranking holds about 4,000 sequences; the median of “arbitrary fluorescence units” is about 830, and the highest 2% start at about 6,500. This part holds few or none of the hits.

The sequences below were run against RUNX1 (UniProt Q01196) (assay: RUNX1 binding intensity (PBM fluorescence), RUNX1 alone (arbitrary fluorescence units); higher = stronger binding). Conditions: RUNX1 concentration 2 nM; ETS1 concentration 0 nM.
Chain of UniProt Q01196 (Q01196 whole entry): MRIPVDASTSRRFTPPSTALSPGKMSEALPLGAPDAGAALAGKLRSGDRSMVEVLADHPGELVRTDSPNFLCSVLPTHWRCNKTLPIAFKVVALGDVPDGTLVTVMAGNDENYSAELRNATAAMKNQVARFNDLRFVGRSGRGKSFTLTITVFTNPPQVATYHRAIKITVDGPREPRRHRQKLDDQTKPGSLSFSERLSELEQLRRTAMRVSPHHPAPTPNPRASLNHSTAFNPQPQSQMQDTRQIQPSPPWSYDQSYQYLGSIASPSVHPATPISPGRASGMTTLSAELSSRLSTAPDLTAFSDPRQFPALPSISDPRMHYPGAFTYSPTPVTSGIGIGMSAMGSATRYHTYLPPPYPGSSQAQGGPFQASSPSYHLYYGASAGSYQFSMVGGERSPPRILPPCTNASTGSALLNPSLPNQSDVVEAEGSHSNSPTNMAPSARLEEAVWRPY
Protocol: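 gcPBM on 36-bp genomic-derived probes (partner site mutated) containing one RUNX1 site and no ETS1 site. Recombinant human RUNX1 (2 nM) was incubated alone or with ETS1 (25 nM) and detected by anti-RUNX1 antibody fluorescence. Values are medians over 4 replicate spots (not normalised). The probes sit in constant array flanks that are not printed.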
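Further: Full-length recombinant human RUNX1 bound to double-stranded DNA microarray spots, detected with an Alexa488-labelled secondary antibody after the anti-RUNX1 primary, read as scanned spot fluorescence.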

Compared with CCTGAGAGATACGGCGCGCGTCTTCCACCACAATGC, ACATGAAGGAACTTGCTCAGGGCCACACCGCAGAGT is lower in RUNX1 binding intensity: 845 for the first, 834 for the second.

First: CCTGACCGCCTATCAAATCTTGCCACTGCCTGCTCG
Second: ACAGTTTAACCACTCTAAACCCCAACTCCCTCATCT
The RUNX1 binding intensity of the first is lower: 1040 for the first, 1350 for the second.

First: AAAACCACATTGCCTGTGCTGCAGGCTGGAAAGCTG
Second: GAGAAAGCCGCAGACACTGCTTACAGCTTTTCATGT
The RUNX1 binding intensity of the first is lower: 879 for the first, 1110 for the second.

Compared with GGGATCCTTCAGCTCCGGGTTAACCCCGACCGCGCC, GAGACTCCCGCAACCTTGGCCGTCTCCCCGGCTCCA is higher in RUNX1 binding intensity: 697 for the first, 943 for the second.

Compared with GCTTCTGAGGCAGTGCGTTCTGTGGGTAGGTGGAGT, GCGCCCTCCATGAAACGCCGCGGTTTACTGTCTGCC is higher in RUNX1 binding intensity: 805 for the first, 949 for the second.

First: GAAAAGCAGCGGTTTCCCTTTGAGCCTGAACAAGAT
Second: GGTTGGGTGCGGTCCGTGAGGTTCGGGCCCAGCCCA
The RUNX1 binding intensity of the first is higher: 902 for the first, 743 for the second.

Compared with ACTTACCTCCCGACGTCACAGCCACCGAAACCACAG, GCTGCTGGAAAAGGCGCCGAGGTAACCGCCTCACTT is lower in RUNX1 binding intensity: 1560 for the first, 858 for the second.

First: GCGCTCCCTGCCAGCTTGGAGGATAACCGCCTACCG
Second: CAGAAACGTCCCTCCTGCCGCCGCTTTGTGGTACCA
The RUNX1 binding intensity of the first is lower: 780 for the first, 863 for the second.

Compared with CTCATTGACATGAAGTCTAACCACAGGCTTAGGCCC, TTGCGTCATTCCCGAGAGACTTTCGCGCCGCAGTTT is lower in RUNX1 binding intensity: 1360 for the first, 731 for the second.

First: CAAGGGAGGGCGGTTACTAGGAGGTGAAAGGCGGAG
Second: CTCTGGGAATTGTAGGCGTAGGGCGTCAGGCCGCAG
The RUNX1 binding intensity of the first is higher: 777 for the first, 664 for the second.

Compared with CACCGCCGCAGTTCGCGGGAGCGCTCTTGCTGGGGC, AGGCTGCGACCCGCGGGCGGAGGCAGGGGGTGGCCT is lower in RUNX1 binding intensity: 794 for the first, 726 for the second.

Going from AAGTTGATTCCCGGGTAGTCTGTGGTTTCCTAATCA to GACATGAAGCCCGCGGCAGCCTCCGTGGTTGCAGAT, the RUNX1 binding intensity falls from 1320 to 863.

First: AATGTAGGAGATTCCACTGCATAATTTGTGGTAGTG
Second: GTGCCTTGTGGTCAGGTGGCTGGGCAGGGTGTTTCT
The RUNX1 binding intensity of the first is lower: 752.9 ± 6.7 for the first, 2240 for the second.

First: CCCCGCGGCACTCTGGCACAGTCAGCTGACCGCAGA
Second: GGCCGAGGAGGGACCTGGTGTTTTGATGACCGCTGT
The RUNX1 binding intensity of the first is higher: 1580 for the first, 816 for the second.

First: GCTGCACCGCACGGACAGGGACCCTGATGGAAAGCT
Second: AACAGTCACATACGGGGCCGAGAGGAACCGCGAACG
The RUNX1 binding intensity of the first is lower: 798 for the first, 862 for the second.

First: GTTTTGCTGGTGGCCCGGCCATGCCTGAGGTTTCTC
Second: CGGGCCACAAAATGGTGGAGGGGCAGCTTACGGCAG
The RUNX1 binding intensity of the first is higher: 861 for the first, 786 for the second.

First: GAGGACTTTCGGGTGCGTGTGATATCTGCGGGCCCG
Second: GCAGCATTTGCTGACTTCTTCGCCCCTGTGGTTGCA
The RUNX1 binding intensity of the first is lower: 648 for the first, 796 for the second.

First: ATGACTCCAGCAAGATCCTCCTGTGACCACTGCCCC
Second: CTTAAATGGGCAATGTAGGTGTGGTTAAGTCACAAA
The RUNX1 binding intensity of the first is lower: 956 for the first, 1030 for the second.

First: AGCGGATTCCAGACATAACAATCTACAGCGGTCTTA
Second: AAACATCATAGGAGGTGGATTTTGTGGTGAGAGACA
The RUNX1 binding intensity of the first is lower: 745 ± 66 for the first, 860 ± 15 for the second.

First: GGCGCAAGTTGCGGAGTTTCTGTGTCCTTTTTCCTC
Second: TTGGATGTGGCTTGCCAAAAAAAAGCATAGCCTTGG
The RUNX1 binding intensity of the first is higher: 1000 for the first, 661 for the second.

Going from GAAACCTGAAGCGGCGGCTGTCCGCGGTGCCGGCTG to CGGCTAGGAGATAAAGAGCCTTCTCTCCGCGGTAGG, the RUNX1 binding intensity rises from 661 to 1850.

Compared with CAAATTAGCCACAGGGTGGATAGGAGATGGCTAGGA, GGCCCTGGGCCGCAGCGGTAGCGACAGAAAGCGCCA is higher in RUNX1 binding intensity: 674 for the first, 726 for the second.

First: CAGAGAGCGGACCTCCGCGACGCGGGTAAGCCGGGC
Second: ACCCTCTGTGGTTTAGGCTAGCGGGCTTTCAGCCTA
The RUNX1 binding intensity of the first is lower: 674 for the first, 2590 for the second.

Going from GTAAAAGAGGACGTAACACCTCCTTGCGGTTGAGAC to GCAACTGAACAGTAAACTAAAAAACCACAACACTTA, the RUNX1 binding intensity rises from 1430 to 1790.

Going from AGCCAGATCCTCCCTTAGGTCTGACCGCAGCTTAAC to GCTGTCCGTTCCCGAGATGTTAATGCGGGGTCTTGC, the RUNX1 binding intensity falls from 2150 to 824.

Going from CGGCCCGCAGCAGAACAGCCAGCGCACCTCCTCCTC to AGGCTGTGGCGGCAGTGGTCGCGTTACCGCTTGTTT, the RUNX1 binding intensity falls from 945 to 734.

Compared with TGCTCAGCATGTTTAAAAACAAAACCACGCGTCTAT, TACCCTTGTGGGCCCCCCGGCGACGCTTGCTGCTCC is higher in RUNX1 binding intensity: 694 for the first, 765 for the second.

Going from TGAAACCACATGAAACCAGAGTAGCCTCCGTACAGG to GGGTCTCCAGCAAGCCACTCACCACAAACTTTGACA, the RUNX1 binding intensity falls from 1040 to 1020.

Going from CCTGTTCGGGGCTCCGTACACCCAGGCCCGCAGCTG to CTCCTCCCCCACTGCCTATTTTTACCGCAGTTGCAC, the RUNX1 binding intensity rises from 853 to 2110.

First: GCCTCCGAGTCTATGGCAGCCTGTGGCTCACCACAC
Second: CCAGCAAGTTCAAACTGGGTGGAGCCCACCGCAGCT
The RUNX1 binding intensity of the first is higher: 873 for the first, 702 for the second.

Compared with GATTTCATGTTTGAGGTTTAACTTCAGTAGCTTGGG, CGGCCGCGGTTTAGGGCGGCCCCGTAAGCGGGGCGC is higher in RUNX1 binding intensity: 832 for the first, 1350 for the second.

First: CTGCCCACCGAAAACGATGGCGCGAGGCCGCAGAGC
Second: ACAAGCCAGTTCCCATTCTTGTGGCTGTAGAGGGGA
The RUNX1 binding intensity of the first is lower: 823 for the first, 852 for the second.

First: GCGGGAGGCCTCCTCACATTACCGCTCCGCGTAAGT
Second: CTGTGGTTGGGCTGTGTAGGCGCGGATTGCCTGGCT
The RUNX1 binding intensity of the first is lower: 726 for the first, 906 for the second.

First: TGGTGTGAGGTGTGGCTTTGTCTTCATGAACGGTGT
Second: GACATCTTCAGGTTGCTACAGGTTACGGCGGTTGCT
The RUNX1 binding intensity of the first is lower: 761 for the first, 784 for the second.

Going from CTTCAGGAGACCACAGTTCTCAGGCTTCGTCCCTTC to GAGCAGGGAGCACCCCCAGCACAGGCCTGCGGTGAG, the RUNX1 binding intensity falls from 956 to 781.

Compared with CGGCAGTGGGTTGGAGGTGTGGCGGGAATGGTTGGG, GCACCAGAGCAAGCTGAGGAGGAGGTGCGGTGGCTG is lower in RUNX1 binding intensity: 910 for the first, 720 for the second.

Going from AATTCCCAGCAAGCACTCGGCAGCCACAAACTGATG to GTGCAGGCCGTAAGGAAAAGGGTTGTGGGGCTCATT, the RUNX1 binding intensity falls from 823 to 789.

Going from GGTTTCGCTCCCGGGTTAGGCGGCCGCAGAAGCGTA to ACTCCACCTACCCACAGAACGCACTGCCTCAGAAGC, the RUNX1 binding intensity rises from 808 to 1350.

Compared with ACTTCTGAGAAAACCTCAGCGCTTCATGGAGAAACT, CCAGAACCCGGGACCACAGCACGGAGACGGTCCGGG is lower in RUNX1 binding intensity: 919 for the first, 710 for the second.

Going from CAAACCACATGCCCACCTGGGGGACATGAAGAGGAC to GTAACCACGGCGGCCGCCACGCCCCGTTGCCTGGTC, the RUNX1 binding intensity rises from 870 to 970.
